According to PubChem BioAssay AID1347044 (National Center for Advancing Translational Sciences (NCATS), 2019):
This is one part of the list. The main result of the screen is listed elsewhere. These columns were measured beside it and carry no call. Most of these compounds were active or inconclusive in the main read-out, so they are no random draw. Words in brackets tell the shape of the fitted curve; partial curves, single points and poor fits give uncertain potencies.
Tags tell the direction and shape of the fitted curve.

Experiment: Natriuretic polypeptide receptor (hNpr1) antagonism - Confirmation; also: nearly all actives have a fitted effect of over 70% in size
Settings: HEK293 hNpr1 cGMP GloSensor luminescence, ANP-stimulated; measured here: HEK-hNpr1 cytotoxicity, CellTiter-Glo
Outline: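 HEK293 cells expressing hNpr1 and the pGS-40F GloSensor cGMP sensor, loaded with 2% GloSensor reagent for 2 h, then treated 30 min with compound at room temperature. Luciferase luminescence read before and 20 min after 0.1 nM hNppA stimulation.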
In the case of `O=C1N(Cc2cccnc2)C[C@H]2CN(Cc3ccc(C(F)(F)F)cc3)CCN12`, the CC50 is reported as 15.7 µM [falling, partial curve].
With `CC1(C)[C@H](Cc2cc(-c3ccc(F)cc3)on2)C[C@@H]1NS(C)(=O)=O` the CC50 was 35.3 µM [falling, single point].
In the case of `CC(=O)Nc1ccc(S(=O)(=O)N[C@H]2CO[C@H]3[C@@H]2OC[C@H]3OC(=O)Nc2ccc(Oc3ccccc3)cc2)cc1`, the CC50 is reported as 12.2 µM [falling, partial curve].
In the case of `COc1ccc(C(=O)N2CCCN(c3cc(-c4ccc(F)cc4)[nH]n3)CC2)c(C)c1`, the CC50 is reported as 13.7 µM [falling, partial curve].
With `Nc1nc(C2CC(O)C2)cc(N2CCC(Cc3ccc(F)cc3)CC2)n1` (stereo unspecified) the CC50 was 17.2 µM [falling, partial curve].
For `O=C(Cc1c[nH]c2ccccc12)N1CCCN(c2cc(-c3ccc(Br)cc3)[nH]n2)CC1`, the CC50 was 21.7 µM [falling, partial curve].
With `COc1cc(NC(=O)Cn2c(N(C)Cc3ccccc3)nc(C)cc2=O)cc(OC)c1` the CC50 was 15.3 µM [falling, partial curve].
For `CN(Cc1ccc(N2CCCCC2)cc1)C(=O)c1ccc2c(c1)C(O)CCCCCN2C` (stereo unspecified), the CC50 was 21.7 µM [falling, partial curve].
With `COc1ccc(-c2noc(CC3CCN(C(=O)Cc4ccccc4Cl)CC3)n2)cc1` the CC50 was 21.7 µM [falling, partial curve].
For `CC1=NS(=O)(=O)N(C)C=C1C(=O)OCc1nc(C2CCCCC2)no1`, the CC50 was 19.3 µM [falling, partial curve].
In the case of `COc1ccc(CC(=O)NC2CCN(c3cc(-c4ccc(F)cc4)[nH]n3)C2)cc1OC` (stereo unspecified), the CC50 is reported as 21.7 µM [falling, partial curve].
With `O=C(Nc1ccc(F)cc1)c1cc2n(n1)CC(c1ccc3c(c1)OCO3)OC2` (stereo unspecified) the CC50 was 30.6 µM [falling, partial curve].
In the case of `COc1ccc(C(=O)N2CCC3(C2)C(=O)N(Cc2ccccc2)c2ccccc23)cc1` (stereo unspecified), the CC50 is reported as 19.3 µM [falling, partial curve].
In the case of `O=C(Nc1ccc(F)cc1)C1CCN(c2cc(C(F)(F)F)ncn2)CC1`, the CC50 is reported as 19.3 µM [falling, partial curve].
With `O=C(C1CC1)N1CC(Oc2ccc(-c3noc(C4CCOCC4)n3)cc2)C1` the CC50 was 15.3 µM [falling, partial curve].
In the case of `CCc1noc(CC2CCOC3(CCN(S(=O)(=O)c4cccc(OC)c4)CC3)C2)n1` (stereo unspecified), the CC50 is reported as 24.3 µM [falling, partial curve].
For `COc1ccc(CC(=O)NC2CCCN(c3cc(-c4ccc(Cl)cc4)[nH]n3)C2)cc1OC` (stereo unspecified), the CC50 was 27.3 µM [falling, partial curve].
In the case of `O=C1CC2(CCN(C(=O)c3ccc(Cl)cc3)CC2)Oc2ccccc2N1`, the CC50 is reported as 19.3 µM [falling, partial curve].
For `Cc1nn2c(c1-c1ccccc1-c1ccccc1)N(CC1CC1)CCC2`, the CC50 was 39.6 µM [falling, single point].
With `COc1ccc(-c2noc(CC3CCN(C(=O)Cc4ccccc4OC)CC3)n2)cc1` the CC50 was 21.7 µM [falling, partial curve].
With `COc1ccc(Cl)cc1-c1ccc2c(n1)CN(CCOc1ccccc1)C(=O)CO2` the CC50 was 55.9 µM [falling, single point].
In the case of `COc1nccc(N2CCC(CC(=O)NCc3ccccc3F)CC2)n1`, the CC50 is reported as 34.3 µM [falling, single point].
For `COC(=O)c1cccc(NC(=O)CCNc2c(C)nc3cnccn23)c1`, the CC50 was 19.3 µM [falling, partial curve, poor fit].
In the case of `O=S(=O)(c1ccc(Cl)cc1)N1CCOC[C@H](Oc2ccc(C(F)(F)F)cc2)C1`, the CC50 is reported as 34.3 µM [falling, single point].
For `O=C(NC1CCCCC1)O[C@@H]1CO[C@H]2[C@@H]1OC[C@@H]2Nc1nccc(-c2cccs2)n1`, the CC50 was 7.03 µM [falling, full curve].
In the case of `CCN(Cc1noc(C2CCC2)n1)C(=O)C(C)Oc1ccc2ccccc2c1` (stereo unspecified), the CC50 is reported as 21.7 µM [falling, partial curve].
In the case of `N#Cc1cccc(CN[C@H]2CO[C@H]3[C@@H]2OC[C@H]3OC(=O)Nc2ccc(Oc3ccccc3)cc2)c1`, the CC50 is reported as 21.7 µM [falling, partial curve].
For `CC(=O)Oc1ccccc1C(=O)Nc1ccc2c(c1)CN(CCc1ccc(F)cc1)C(=O)C(C)O2` (stereo unspecified), the CC50 was 43.2 µM [falling, single point].
In the case of `O=c1[nH]c2ccccc2n1C1CCN(c2nccc(-c3cccnc3)n2)CC1`, the CC50 is reported as 19.3 µM [falling, partial curve].
For `COCc1nc(-c2ccc(OC3CN(C(=O)NC(C)C)C3)cc2)no1`, the CC50 was 19.3 µM [falling, partial curve].
With `COc1cc(NC(=O)Cn2c(N3CCC(C)CC3)nc(C)cc2=O)cc(OC)c1` the CC50 was 13.7 µM [falling, partial curve].
For `Cc1ccc(C(=O)N[C@H]2CO[C@H]3[C@@H]2OC[C@@H]3Nc2nccc(-c3ccc(-c4ccccc4)cc3)n2)cc1`, the CC50 was 17.2 µM [falling, partial curve].
In the case of `CCOc1ccc(C(=O)N2CCC(Cc3nc(-c4cccc(OC)c4)no3)CC2)cc1`, the CC50 is reported as 15.3 µM [falling, partial curve].
With `Cc1nc(-c2ccncc2)ncc1C(C)Nc1ncnc(C)c1C` (stereo unspecified) the CC50 was 13.7 µM [falling, partial curve].
For `CCCCOc1ccc(C(=O)N2CCC(Cc3nc(-c4cnccn4)no3)CC2)cc1`, the CC50 was 24.3 µM [falling, single point].
For `CC(C)Cc1ccc(S(=O)(=O)N(C)CC2CCOCC2)cc1`, the CC50 was 15.3 µM [falling, partial curve].
With `c1ccc(-n2cc(CN3CCC(Oc4ccncc4)CC3)nn2)cc1` the CC50 was 38.5 µM [falling, single point].
In the case of `CCOc1ccc(CC(=O)N2CCC(Cc3nc(-c4ccccc4)no3)CC2)cc1`, the CC50 is reported as 15.3 µM [falling, partial curve].
For `Cc1ccccc1-c1cnc2[nH]cc(CC(=O)NCc3ccccc3)c2c1`, the CC50 was 25 µM [falling, partial curve].
In the case of `O=C(Cc1c[nH]c2ncc(-c3ccccc3F)cc12)N1CCOCC1`, the CC50 is reported as 31.4 µM [falling, partial curve].
With `COc1ccc(-c2ccnc(N[C@H]3CO[C@H]4[C@@H]3OC[C@H]4OC(=O)Nc3cccc(C(C)=O)c3)n2)cc1` the CC50 was 21.7 µM [falling, partial curve].
In the case of `CC(C)c1ccc(CN2CCc3ncc(C(=O)NCc4ccccc4)n3CC2)cc1`, the CC50 is reported as 35.3 µM [falling, partial curve].
For `O=C(NCC1CC1)c1nc2c(o1)CCN(Cc1cccc(F)c1F)CC2`, the CC50 was 22.2 µM [falling, partial curve].
For `O=C(CC1CCCCC1)N1CCC(c2noc(COc3ccc(F)cc3)n2)CC1`, the CC50 was 19.3 µM [falling, partial curve].
With `COc1cccc(-c2noc(CC3CCN(C(=O)c4ccc(F)c(F)c4)CC3)n2)c1` the CC50 was 10.9 µM [falling, partial curve].
For `C=CCNC(=O)c1coc(COc2ccc3ccc(OC)cc3c2)n1`, the CC50 was 24.3 µM [falling, partial curve].
In the case of `O=C(N[C@H]1CO[C@H]2[C@@H]1OC[C@@H]2Nc1nccc(-c2ccc(-c3ccccc3)cc2)n1)C1CCCCC1`, the CC50 is reported as 30.6 µM [falling, single point].
For `COc1ccc(Cl)cc1NC(=O)Cn1c(N2CCC(C)CC2)nc(C)cc1=O`, the CC50 was 19.3 µM [falling, partial curve].
With `N#Cc1ccc(CN2CCC3(CC2)CC(c2cccnc2)=NO3)cc1` the CC50 was 31.4 µM [falling, partial curve].
In the case of `COc1ccc(C(=O)Nc2ccc3c(c2)CN(Cc2ccc(F)cc2)C(=O)C(C)O3)c(OC)c1` (stereo unspecified), the CC50 is reported as 43.2 µM [falling, single point].
In the case of `CC(=O)Nc1ccc(C(=O)N2CCC3(CC2)N=C(c2ccc(Br)cc2)NO3)cc1`, the CC50 is reported as 10.9 µM [falling, partial curve].
For `COc1nccc(N2CCC(CC(=O)N(C)CCCc3c(C)nn(C)c3C)CC2)n1`, the CC50 was 19.3 µM [falling, partial curve].
With `COc1ccc(CCCNc2cc(C3CC(O)C3)ncn2)cc1` (stereo unspecified) the CC50 was 15.3 µM [falling, partial curve].
With `O=C(NC1CCOCC1)c1ccc2c(c1)OCCN(c1cccc(OC(F)(F)F)c1)C2` the CC50 was 49.8 µM [falling, single point].
In the case of `Cc1n[nH]c(C)c1Cc1ccc(C(=O)N2CCC(CCOc3ccc(F)cc3)C2)o1` (stereo unspecified), the CC50 is reported as 24.3 µM [falling, partial curve].
In the case of `COc1ccc(-c2noc(CC3CCN(C(=O)C4CCN(C(=O)c5ccccc5)CC4)CC3)n2)cc1`, the CC50 is reported as 21.7 µM [falling, partial curve].
For `CC(C)c1noc(-c2cn(C3CCN(C(=O)c4ccc(N(C)C)cc4)C3)nn2)n1` (stereo unspecified), the CC50 was 24.3 µM [falling, partial curve].
With `FC(F)(F)c1ccc(N2C3CCC2CN(Cc2cccs2)C3)cc1` the CC50 was 27 µM [falling, partial curve].
For `COc1ccc(OCC(=O)N2CCC(Cc3nc(-c4ccc(F)cc4)no3)CC2)cc1`, the CC50 was 10.9 µM [falling, partial curve].
With `COc1cc(OC)c(NC(=O)Cn2c(N(C)Cc3ccccc3)nc(C)cc2=O)cc1Cl` the CC50 was 19.3 µM [falling, partial curve].
With `COc1ccc(C(=O)N2CCC3(CC2)N=C(c2cccc(Br)c2)NO3)cc1F` the CC50 was 24.3 µM [falling, single point].
